Results published in the antibiotic and cytotoxicity screens of Wong et al. (2023).
The other results are listed elsewhere or left out.

Columns and labels:
HSkMC = human skeletal muscle cells; assay: cytotoxicity call (relative viability < 0.9); conditions: 10 µM
S. aureus RN4220 = assay: growth inhibition call (relative growth <= 0.2); conditions: 50 µM

Row | Compound | cytotoxicity call (HSkMC) | growth inhibition call (S. aureus RN4220)
1 | CC(C)CC#Cc1ccc2c(c1)O[C@H](CN(C)C(=O)NC1CCCC1)[C@H](C)CN([C@H](C)CO)S2(=O)=O | inactive | inactive
2 | CNC[C@H]1Oc2ccc(NC(=O)Cn3cnnn3)cc2CC(=O)N([C@@H](C)CO)C[C@@H]1C | inactive | inactive
3 | CCCN(C)C[C@H]1OCCCC[C@H](C)Oc2ccc(NC(=O)Nc3cccc4ccccc34)cc2C(=O)N([C@@H](C)CO)C[C@H]1C | inactive | inactive
4 | CC(N)(Cc1ccc(O)c(O)c1)C(=O)O (centres undefined) | inactive | inactive
5 | CC[C@H]1OC(=O)[C@H](C)[C@@H](O[C@H]2C[C@@](C)(OC)[C@@H](O)[C@H](C)O2)[C@H](C)[C@@H](O[C@@H]2O[C@H](C)C[C@H](N(C)C)[C@H]2O)[C@](C)(OC)C[C@@H](C)C(=O)[C@H](C)[C@@H](O)[C@]1(C)O | inactive | active
6 | C[C@H]1CN([C@@H](C)CO)C(=O)c2cccc(NC(=O)CCCCCC(=O)Nc3ccccc3N)c2O[C@@H]1CN(C)C(=O)Nc1ccc(C(F)(F)F)cc1 | inactive | inactive
7 | COc1ncc(NC(=O)C2CC2)c(OC)n1 | inactive | inactive
8 | Cc1noc(C)c1NC(=O)N[C@@H]1CC[C@H](CC(=O)NCCCN(C)C)O[C@H]1CO | inactive | inactive
9 | Nn1c(CO)nc2ccccc21 | inactive | inactive
10 | Cc1cc(C(=O)Nc2cccc3c2O[C@@H](CN(C)Cc2ccc(Oc4ccccc4)cc2)[C@@H](C)CN([C@@H](C)CO)C3=O)n(C)n1 | inactive | inactive
11 | C[C@H]1CN([C@@H](C)CO)C(=O)Cc2cc(NC(=O)CCN3CCOCC3)ccc2O[C@@H]1CN(C)Cc1ccncc1 | inactive | inactive
12 | C[C@H]1CCCCO[C@H](CN(C)C(=O)NC2CCCCC2)[C@@H](C)CN([C@@H](C)CO)C(=O)c2cc(NC(=O)NC3CCCCC3)ccc2O1 | inactive | inactive
13 | O=S(=O)(NCC[C@@H]1CC[C@H](NS(=O)(=O)c2ccccc2Cl)[C@H](CO)O1)c1ccc(F)cc1 | inactive | inactive
14 | C[C@@H]1CCCCO[C@H](CN(C)C(=O)Nc2cccc3ccccc23)[C@@H](C)CN([C@@H](C)CO)C(=O)c2cc(NC(=O)C3CCCCC3)ccc2O1 | inactive | inactive
15 | CNC[C@@H]1OCCCC[C@@H](C)Oc2ccc(NC(=O)CCCN(C)C)cc2C(=O)N([C@H](C)CO)C[C@H]1C | inactive | inactive
16 | COc1ccc([C@@H](NC(=O)C2CCN(Cc3ccc(Oc4ccccc4)cc3)CC2)c2ccccc2C)cn1 | inactive | inactive
17 | COC(=O)c1c(CC[C@@H](CO)NC(=O)N[C@H](Cn2cc(C3(O)CCCCC3)nn2)C(C)C)oc(C(C)=O)c1C(=O)OC | inactive | inactive
18 | C[C@H](CO)N1C[C@H](C)[C@@H](CN(C)S(C)(=O)=O)Oc2ccc(NC(=O)Cn3cnnn3)cc2C1=O | inactive | inactive
19 | COc1cc(C(=O)NS(=O)(=O)c2ccccc2C)ccc1Cc1cn(C)c2ccc(NC(=O)OC3CCCC3)cc12 | inactive | active

Row | Compound | cytotoxicity call (HSkMC) | growth inhibition call (S. aureus RN4220)
20 | COc1ccc(CN(C)C[C@H]2OCCCC[C@H](C)Oc3ccc(NC(=O)Nc4ccccc4)cc3C(=O)N([C@H](C)CO)C[C@H]2C)cc1 | inactive | inactive
21 | C[C@H]1CN([C@@H](C)CO)C(=O)c2cccc(NC(=O)Nc3ccccc3)c2O[C@@H]1CN(C)C(=O)Nc1cccc2ccccc12 | inactive | inactive
22 | CC(C)NC(=O)N(C)C[C@H]1Oc2c(NC(=O)Nc3ccc4c(c3)OCO4)cccc2C(=O)N([C@H](C)CO)C[C@H]1C | inactive | inactive
23 | Cc1ccc(S(=O)(=O)Nc2ccc3c(c2)C(=O)N([C@@H](C)CO)C[C@@H](C)[C@@H](CN(C)Cc2ccc(C(F)(F)F)cc2)OCCCC[C@H](C)O3)cc1 | inactive | inactive
24 | O=C(C[C@H]1CC[C@@H]2[C@H](COC[C@H](O)CN2S(=O)(=O)c2ccc(Cl)cc2)O1)N[C@@H]1CCN(Cc2ccccc2)C1 | inactive | inactive
25 | C[C@H](CO)N1C[C@H](C)[C@@H](CN(C)S(C)(=O)=O)OCCCC[C@H](C)Oc2ccc(NC(=O)Nc3ccc(C(F)(F)F)cc3)cc2C1=O | inactive | inactive
26 | COc1ccc(NC(=O)Nc2ccc3c(c2)C(=O)N([C@H](C)CO)C[C@@H](C)[C@@H](CN(C)C(=O)Nc2ccc(C(F)(F)F)cc2)O3)cc1 | inactive | inactive
27 | O=C1NC(=O)[C@H]2[C@@H]1[C@H](c1ccccc1)N1[C@@H]3C(=O)NC(=O)[C@@H]3[C@H](c3ccccc3)N21 | inactive | inactive
28 | CC(C)CNC(=O)C(=O)NC(C)C | inactive | inactive
29 | CN(C)CCNC(=O)[C@H]1Cn2ccnc2C2(CCN(Cc3nccs3)CC2)O1 | inactive | inactive
30 | COc1ccc(CN(C)C[C@H]2OCCCC[C@@H](C)Oc3ccc(NC(=O)NC(C)C)cc3C(=O)N([C@H](C)CO)C[C@@H]2C)cc1 | inactive | inactive
31 | Cc1ncsc1-c1ccc(CNC(=O)[C@@H]2C[C@@H](O)CN2C(=O)[C@H](C(C)C)N2Cc3ccccc3C2=O)cc1 | inactive | inactive
32 | CCCN(C)C[C@H]1OCCCC[C@@H](C)Oc2ccc(NC(=O)Nc3c(C)noc3C)cc2C(=O)N([C@H](C)CO)C[C@@H]1C | inactive | inactive
33 | COCC(=O)Nc1ccc2c(c1)C(=O)N(C)C[C@@H](OC)[C@@H](C)CN(Cc1ccccc1OC)[C@H](C)CO2 | inactive | inactive
34 | COc1ccc(S(=O)(=O)Nc2ccc3c(c2)CC(=O)N([C@@H](C)CO)C[C@@H](C)[C@@H](CN(C)Cc2ccc(Oc4ccccc4)cc2)O3)cc1 | inactive | inactive
35 | C[C@H]1CN([C@@H](C)CO)C(=O)c2cc(/C=C/c3ccccc3)cnc2O[C@@H]1CN(C)C(=O)c1cnccn1 | inactive | inactive
36 | C[C@@H]1CN([C@@H](C)CO)C(=O)c2cc(NC(=O)CCCCCC(=O)Nc3ccccc3N)ccc2O[C@H]1CN(C)C(=O)Nc1cccc2ccccc12 | inactive | inactive
37 | O=C(C[C@@H]1CC[C@@H]2[C@H](COC[C@H](O)CN2S(=O)(=O)c2ccc(Cl)cc2)O1)NCCN1CCCCC1 | inactive | inactive
38 | C[C@H](CO)N1C[C@H](C)[C@H](CN(C)Cc2ccncc2)Oc2ccc(NS(=O)(=O)c3cn(C)cn3)cc2CC1=O | inactive | inactive

Row | Compound | cytotoxicity call (HSkMC) | growth inhibition call (S. aureus RN4220)
39 | O=C(C[C@@H]1C[C@H]2c3cc(NS(=O)(=O)c4ccc(F)cc4)ccc3O[C@H]2[C@@H](CO)O1)NCc1ccc(Oc2ccccc2)cc1 | inactive | inactive
40 | CO[C@H]1CN(C)C(=O)c2cc(NC(=O)C3CC3)ccc2OC[C@H](C)N(C(=O)CN2CCOCC2)C[C@H]1C | inactive | inactive
41 | COc1cccc(S(=O)(=O)N2C[C@@H](O)COC[C@H]3O[C@@H](CC(=O)N4CCN(c5ccccc5)CC4)CC[C@@H]32)c1 | inactive | inactive
42 | COCC#Cc1cnc2c(c1)C(=O)N([C@H](C)CO)C[C@H](C)[C@@H](CN(C)C(=O)c1cnccn1)O2 | inactive | inactive
43 | C[C@@H]1CCCCO[C@@H](CN(C)C(=O)NC2CCCCC2)[C@H](C)CN([C@H](C)CO)C(=O)c2cc(NC(=O)NC3CCCCC3)ccc2O1 | inactive | inactive
44 | O=C1N[C@H](Cc2c[nH]c3ccccc23)COC(=O)[C@@H](Cc2ccc(F)cc2)CCC=CC[C@@H]1CC(=O)N(CCO)Cc1ccccc1 | inactive | inactive
45 | C[C@@H]1CCCCO[C@@H](CN(C)S(=O)(=O)c2cccs2)[C@@H](C)CN([C@@H](C)CO)C(=O)c2cc(NC(=O)c3ccccc3)ccc2O1 | inactive | inactive
46 | C[C@@H]1CN([C@H](C)CO)C(=O)c2cc(C#Cc3ccncc3)cnc2O[C@@H]1CN(C)S(=O)(=O)c1ccccc1F | inactive | inactive
47 | C[C@@H]1CCCCO[C@@H](CN(C)C(=O)CCCN(C)C)[C@H](C)CN([C@H](C)CO)C(=O)c2cc(NC(=O)Nc3cccc4ccccc34)ccc2O1 | inactive | inactive
48 | Cc1cc(C(=O)Nc2cccc3c2O[C@H](CN(C)S(=O)(=O)c2ccc(F)cc2)[C@@H](C)CN([C@@H](C)CO)C3=O)n(C)n1 | inactive | inactive
49 | COc1ccc(NC(=O)Nc2ccc3c(c2)C(=O)N([C@@H](C)CO)C[C@H](C)[C@@H](CN(C)Cc2ccc(Cl)c(Cl)c2)O3)cc1 | inactive | inactive
50 | O=S1(=O)CC=CC1 | inactive | inactive
51 | Cc1ccc(S(=O)(=O)N(C)C[C@H]2OCCCC[C@H](C)Oc3ccc(NS(=O)(=O)c4ccc(F)cc4)cc3C(=O)N([C@@H](C)CO)C[C@H]2C)cc1 | inactive | inactive
52 | C[C@H](CO)N1C[C@H](C)[C@H](CN(C)S(=O)(=O)c2ccccc2)Oc2ccc(NS(=O)(=O)c3cn(C)cn3)cc2CC1=O | inactive | inactive
53 | C[C@@H]1CN([C@@H](C)CO)C(=O)c2cc(NC(=O)Nc3ccccc3)ccc2O[C@@H]1CN(C)C(=O)Nc1cccc2ccccc12 | active | inactive
54 | CC(C)=CCC[C@](C)(O[C@@H]1O[C@H](CO[C@@H]2OC[C@@H](O)[C@H](O)[C@H]2O)[C@@H](O)[C@H](O)[C@H]1O)[C@H]1CC[C@]2(C)[C@@H]1[C@H](O)C[C@@H]1[C@@]3(C)CC[C@H](O[C@@H]4O[C@H](CO)[C@@H](O)[C@H](O)[C@H]4O)C(C)(C)[C@@H]3CC[C@]12C | inactive | inactive
55 | CCS(=O)(=O)N1C[C@]2(CN(Cc3cc(ccc3F)F)C2)c2c(n(c3cc(ccc23)OC)C)[C@H]1CO | inactive | inactive
56 | C[C@@H]1CN([C@@H](C)CO)C(=O)c2cc(NC(=O)c3ccncc3)ccc2O[C@@H](C)CCCCO[C@@H]1CN(C)S(C)(=O)=O | inactive | inactive
57 | O=C(O)c1cc(=O)cc[nH]1 | inactive | inactive
